The supplement of paper PMC3334620
Over roughly 33,000 sequences, “E-score (-0.5 to 0.5)” has its median near -0.01; the highest 2% begin near 0.26. The list shows a part of the results.

The sequences below were run against Ste12 (UniProt P13574) (assay: PBM E-score (8-mer binding enrichment) (E-score (-0.5 to 0.5)); higher = stronger / more preferred TF binding; most listed sequences are background and not binding sites). Conditions: protein concentration: 200 nM; construct: GST-DNA-binding domain.
Outline: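 Yeast transcription factors carrying a GST tag, as full-length proteins or DNA-binding domains, were produced by PURExpress in vitro transcription/translation. About 100-200 nM protein was applied to universal all-10-mer Agilent arrays, double-stranded by primer extension on fresh or once-stripped slides. Bound protein was detected with fluorescent anti-GST, and scans were normalised with masliner. The Universal PBM Analysis Suite gave each ungapped eight-base word, pooled with its reverse complement, an E-score, a modified Wilcoxon-Mann-Whitney statistic.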

Sequence	PBM E-score
CCTGACAG	0.01
GCCGCACC	0.00805
ACAAATTC	0.127
CAATCGGC	-0.114
AGTCAACT	-0.0152
CTAGTGCA	-0.0737
CTGTACGC	-0.169
GCCGAAAA	0.148
CTATCGAC	-0.104
ACAGTACT	-0.0965
CTCCCGTC	0.0578
AGGGCTCA	-0.0959
AATCGGGA	0.06
GCTCGGCC	-0.144
GCAAAGCA	-0.148
TAGAGCAA	-0.13
ATTCGAAG	-0.0567
AGCTAAAA	0.0939
ATGGCATG	0.00737
TCTTTACA	0.18
CATTTTAG	0.267
CGCTCCAC	-0.168
ACAGCCTC	-0.0599
CCCTTCAC	-0.0106
GGTTCGTA	0.105

Sequence	PBM E-score
CTGCCGTA	-0.0935
GCACCATA	0.0607
TATCACAA	0.0811
CTTTTGTC	-0.0993
GGTACTCA	0.0166
ATAGCGAT	0.00738
GGTCGAAA	0.0102
GACCCTAC	-0.143
AGGGCCTC	-0.208
CGCGGTAA	0.0922
AAGGCTGT	-0.111
AGGGCGGA	-0.248
ACCAAGTG	-0.146
AGGGACTC	-0.236
TAACGATA	0.138
CGTGTCCA	-0.139
AGAACCTG	-0.0635
ATGTCGTA	-0.223
GATTAAAC	0.163
TATGCCGA	0.033
AATGGTGT	0.198
ATATTTCC	0.191
CCTGTCCC	-0.147
CAGCTCAG	-0.13
TGATCGAA	0.0482

Sequence	PBM E-score
GTCGGCGA	-0.067
ATTTATCG	0.122
CGAGTGCC	-0.147
AACAAGGA	0.0952
GGAGCTCC	0.0101
CCTGGGCG	-0.153
ACGGAAAC	0.0829
ACCTGGCC	-0.0394
CATATACG	-0.0278
ACCGTTAA	-0.0702
GAGTTTGA	0.0997
CACGATAA	0.241
CATGCCGC	0.0464
CGTTCATA	0.031
CAACCTGA	0.0598
GATCGCGC	0.0163
TCCCTAGA	-0.0265
GGTCGGCA	-0.124
AAGAGGCT	-0.244
ACATCTTC	0.261
GAACCCCA	0.0411
CGACTAAC	-0.163
AGGTTGTG	-0.108
ATGGCCGC	-0.0598
CACGTAGA	0.0937

Sequence	PBM E-score
CGTTTGGC	-0.0549
ACCGATGA	0.0108
ATACAACC	0.043
CCCATTCA	0.143
ACTTGAAA	0.314
TGAAATCA	0.13
CCGGGTCA	0.0537
CAGAAAGA	0.0987
CACATTTA	0.084
CCTAGCTA	-0.202
GCATACTA	-0.0607
CCTACCAG	-0.0291
CTCTCGAC	-0.245
GCGATTCA	0.0308
AGCTGATC	0.0736
AAAACATG	0.324
CAGTTACA	0.0929
ACGCTCAG	-0.0524
GCAGGGCA	-0.147
AGCATAAT	0.153
GCCCTCTA	-0.139
GCCAGTCA	0.0126
ACTCAGTC	-0.0437
CGATGACG	-0.259
GCAAGAGC	-0.0662

Sequence	PBM E-score
GAATCCCC	-0.00136
CACATCCG	-0.00707
AAGGACCT	-0.0446
CGGTTAAG	-0.0649
AGTGAATC	-0.0865
CCGATCTC	-0.136
CGGTACAG	-0.0316
CAACGATC	-0.00727
TCAACGGA	0.0189
TAGTGGCA	-0.066
AAAGGCAG	0.0859
AGTCGAGA	-0.104
ATCATCGA	0.0173
TACGCAAA	-0.0817
ATAGAACG	0.0923
ATGACTAG	-0.183
AGGAGCGA	0.0152
ATTGGTCA	0.136
ATCCGGCA	-0.0625
AATTAGAC	0.227
CACTGTGA	0.193
CTCTTGAA	-0.0612
CGACGGGA	0.0944
AGTAGTAA	0.0453
AGATATCG	-0.114

Sequence	PBM E-score
AGGGACCG	-0.192
GGTCTAAC	-0.0601
CTAGCGCC	-0.22
ACCACACG	-0.0448
GCCTGGTA	0.00276
CATGGAGG	-0.059
CTCCAAAA	0.183
CAAGCACC	-0.106
CTTACCTA	0.0594
GACTCGAC	-0.0892
TCGATTAA	0.159
AGTGCGCC	-0.156
CGGCTATA	0.089
AACCCCTT	-0.194
CTTTCAGC	-0.0939
GCCGAGAA	0.0323
AGTTTCTA	0.16
CCTTTTGA	0.0927
CAGCGTGG	-0.186
ACGCATCC	-0.014
ATTTGGTC	-0.0115
ACATAACC	0.114
GTAGAGAC	-0.134
AACCAACT	-0.0386
AAGTGTGC	-0.0675

Sequence	PBM E-score
CACTACCA	0.0584
GCTGTTAC	0.105
CCGTTTAC	-0.0196
CATGTACA	-0.0456
CTTCAGAC	-0.166
CTATGTTA	0.162
GATTAGAA	0.0413
ACTCAGCG	-0.0244
GGGCAAGA	0.107
CTCGCATC	-0.0806
AGCATGAA	0.0114
ATGACCTC	-0.245
AATGGTCT	-0.167
ACTATGCG	0.0582
CACGGCTC	0.0152
GCGTACAA	-0.177
GCGGCTTA	0.125
GTCAAATA	0.173
CTTATATA	0.226
CGCACTTC	-0.0312
AAATTACA	0.129
CCTCGTTA	0.049
CTATTTGC	0.00415
GAGTAGGA	-0.2
CAACTAGA	0.0762

Sequence	PBM E-score
AAGATATC	0.103
AAGATTGT	0.0785
ATTACTCC	0.0706
GTAGCCAC	-0.27
GATGATGA	-0.107
AAGATTTG	0.0432
CAACGTCC	-0.101
CCGTGACG	-0.0381
AATTGGCG	0.146
AGGGGAAA	-0.0862
AACTGCGC	0.0711
AGCTAATA	-0.106
CATCGGAA	0.0374
AATGCACA	0.0328
AACCCTTG	-0.0917
ATCAGGCG	-0.0721
ATAACCGC	0.00227
AAATTGAG	0.0654
ATTAGCGG	-0.0105
CGTTTAGC	-0.0383
GAGTACAC	-0.231
CTAGGTTA	0.0626
CATAAACA	0.148
ACAGGTCT	-0.267
GTGGAAAC	0.087

Sequence	PBM E-score
CTGTCAGC	-0.167
CGCAACCC	0.00607
ATCGAGGG	0.108
ACTACTGG	-0.154
GACTGGAC	-0.204
CTAGACTA	-0.0813
CTAGGGGC	-0.245
CTTAAACA	0.226
GCCAGTAC	-0.065
CTTTAGTC	-0.0859
ATGCCGCG	0.0154
GAGGTAGA	-0.142
CCTCATCG	-0.0958
CGAATGCC	0.0282
CATCTACA	0.0615
AAGCAAGT	0.0123
ATCCAAGC	-0.309
ATAGACTA	0.00373
CCCACTAC	-0.00139
GCATCAAA	0.0627
AAGACTAC	0.0284
GACTGGCC	-0.136
CCACGTGC	-0.276
ACCCACGC	0.0738
CACCTTGA	0.00979

Sequence	PBM E-score
TTCGAGAA	0.0432
CCACGTGG	-0.105
AGACGCAC	-0.163
CCTCGCCA	-0.045
GGCGGCTA	-0.106
AGATCCTA	-0.0903
GTGGTCGA	-0.162
AACACGGG	0.0924
GGGTCATA	-0.156
ACAAATCC	0.134
CCGTAAGC	-0.142
AAGTGGTG	-0.038
CGCTTTCC	0.0604
CAGCCAAA	0.118
ACTCTTAA	-0.0113
ACTCATGC	-0.11
ACACTCAC	0.0472
TAACGGCA	-0.0399
AACCTGCG	0.0448
CCGAGTCG	-0.0887
ACGCGTGA	0.0295
ACTGTGGC	-0.0114
AACGTACA	-0.0941
GGTAACTA	0.133
CGGCCGGC	0.118

Sequence	PBM E-score
CAGGAAAG	-0.0683
CCTAAAAG	-0.194
CGTGCGTC	0.00737
CATTCACC	0.155
CAAGGCTG	-0.0825
GGCAGTCA	-0.148
AACGCCCA	-0.00128
CAGAAACC	0.142
CGTTCGGA	0.0375
CACAGGGA	-0.0582
CGCCTTAG	-0.0285
CTCCACTC	-0.174
AGCTGTCA	-0.0399
AACGGCTC	-0.0968
AAACTACT	0.0741
GACCGGTA	-0.183
CGCGTGAG	-0.0362
AGCGAGCT	0.181
AGGTTCAC	0.0171
CAATCTAA	0.0497
AGTGTATA	-0.149
GAGTTCGC	-0.0738
ACTCCAGG	-0.098
GCTAGTAA	0.104
ATATCGCG	0.0898

Sequence	PBM E-score
AACGGAGA	-0.0518
CACAGGCA	-0.108
CCTAGCCC	-0.0488
AAAGATGT	-0.0272
GAGGAGCC	-0.15
CGTTGATC	-0.00093
CACAGATA	-0.0734
ACGCATTC	0.0428
AAACACCG	0.318
ACGATAGC	-0.0268
AGCGACGC	-0.0467
ACTTTAGA	0.0868
ACTTCACG	-0.121
AGGGACAC	0.0218
GGGGCTTA	-0.184
CAGTCTGC	-0.0291
GGACCATA	-0.157
ATGACCAC	-0.0736
GATTCAAC	0.0183
GTGCGGAA	0.0628
AATTCCGC	0.0879
AAAAGCAT	0.178
ATATAGCG	-0.029
CTCCGTCC	-0.216
AGCACCAT	-0.0597

Sequence	PBM E-score
CAACGTGC	-0.0286
CGTGCAAG	-0.161
GAATCCAC	-0.0305
CATATCCG	0.085
AGCTCTAT	-0.175
AGGTAAAC	0.22
CCGTGGCA	-0.0397
CGCTTAGC	-0.148
ACGAATAT	0.0367
GCGGCTCC	-0.21
AGCACCCG	-0.171
GGTTATTA	0.152
ATCACCCA	0.119
GTACGACA	0.0486
GGAATCCC	0.0198
ACCTATTG	-0.168
GACAGCGA	-0.0446
GGATCACC	-0.0886
CTTAATTC	0.166
CCATCGGC	-0.126
CTCTTCAC	-0.0677
AATAATCA	0.109
GCTTTTGA	-0.106
CATCATGG	0.0244
CAATTAGA	0.102

Sequence	PBM E-score
CACGTGAC	-0.0831
GCACGAGA	-0.0756
GCCGGTTA	-0.143
AGCTCCAG	-0.073
CCGCGATA	-0.0834
CATTTTAA	0.27
ACCTATAT	0.122
AGAGCACA	-0.105
TACGACCA	-0.0278
CCGGTAGA	0.0403
AATCGCTC	-0.115
CAACCAGG	-0.132
AAGTTATG	0.189
ATCTACGA	-0.157
ACTGGGAA	0.0846
GAAGTATC	0.0647
ACGTGAGT	0.00095
ACCACTGC	-0.136
AGGACGCA	0.0224
